Source: the supplement of paper PMC8728848
The list shows a part of the results.

Columns and labels:
Assay in all cases: glycan array binding signal (z-score within array); higher = stronger binding
Details in all cases: glycan notation: IUPAC condensed, linker removed
[1] = target: Neu5Ac(a2-8)Neu5Ac(a2-3)[GalNAc(b1-4)]Gal(b1-4)Glc
In short: (§1)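 Negative Z-scores can be read as non-binding. The Z-score is calculated within each array and then averaged across arrays of one protein sequence at different concentrations or buffers and across linkers. Arrays, 3228 in all, were curated from the Consortium for Functional Glycomics database and kept only where the protein sequence was available.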

[2] = target: Neu5Ac(a2-8)Neu5Ac(a2-8)Neu5Ac
In short: as §1

[3] = target: Neu5Ac(a2-8)Neu5Ac(a2-8)Neu5Ac(a2-3)Gal(b1-4)Glc
In short: as §1

[4] = target: Neu5Ac(a2-8)Neu5Ac(a2-8)Neu5Ac(a2-3)[GalNAc(b1-4)]Gal(b1-4)Glc
In short: as §1

[5] = target: Neu5Ac(a2-8)Neu5Ac(a2-8)Neu5Ac(a2-8)Neu5Ac(a2-3)[GalNAc(b1-4)]Gal(b1-4)Glc
In short: as §1

[6] = target: Neu5Ac(b1-6)GalNAc
In short: as §1

[7] = target: Neu5Ac(b2-6)Gal(b1-4)GlcNAc
In short: as §1

[8] = target: Neu5Ac9Ac(a2-6)Gal(b1-4)GlcNAc
In short: as §1

[9] = target: Neu5Gc(a2-3)Gal(b1-3)GlcNAc
In short: as §1

[10] = target: Neu5Gc(a2-3)Gal(b1-3)[Fuc(a1-4)]GlcNAc
In short: as §1

[11] = target: Neu5Gc(a2-3)Gal(b1-4)Glc
In short: as §1

[12] = target: Neu5Gc(a2-3)Gal(b1-4)GlcNAc
In short: as §1

[13] = target: Neu5Gc(a2-3)Gal(b1-4)[Fuc(a1-3)]GlcNAc
In short: as §1

[14] = target: Neu5Gc(a2-6)Gal(b1-4)GlcNAc
In short: as §1

[15] = target: Neu5Gc(a2-6)GalNAc
In short: as §1

B1: CV-IIL (Chromobacterium violaceum) (protein)
chain: AQQGVFTLPARINFGVTVLVNSAATQHVEIFVDNEPRAAFSGVGTGDNNLGTKVINSGSGNVRVQITANGRQSDLVSSQLVLANKLNLAVVGSEDGTDMDYNDSIVILNWPLG
- glycan array binding signal (z-score) [1]: -0.501
- glycan array binding signal (z-score) [2]: -0.501
- glycan array binding signal (z-score) [3]: -0.501
- glycan array binding signal (z-score) [4]: -0.494
- glycan array binding signal (z-score) [5]: -0.495
- glycan array binding signal (z-score) [6]: -0.502
- glycan array binding signal (z-score) [7]: -0.501
- glycan array binding signal (z-score) [8]: -0.502
- glycan array binding signal (z-score) [9]: -0.502
- glycan array binding signal (z-score) [10]: 1.61
- glycan array binding signal (z-score) [11]: -0.498
- glycan array binding signal (z-score) [12]: -0.491
- glycan array binding signal (z-score) [13]: -0.375
- glycan array binding signal (z-score) [14]: -0.502
- glycan array binding signal (z-score) [15]: -0.501
